The campaign covered roughly 43,000 compounds. About 200 (0.47%) were called active. Inconclusive results (about 12%) are left out. The call rests on the fitted dose curve; in most records, active means well fitted cell-killing curve with a large enough effect; inconclusive means small, poorly fitted or top-dose-only effect, or effect the other way; inactive means flat fitted curve, though single readings scatter. Some of the results follow.
Experiment: Cell viability qHTS assay in S16 Pmp22-F2sN cells; further: nearly all actives have a fitted effect of over 65% in size
Details: S16 Pmp22-F2sN Schwann cells (luciferase reporters placed in the Pmp22 gene) viability, CellTiter-Glo, 24 h; series mostly up to 57.5 µM; activity change, negative = cytotoxicity: at the top concentration
Procedure, shortened: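 Rat S16 Schwann reporter line, 24 h treatment with library compounds delivered at 23 nL per well. Cell viability by CellTiter-Glo luminescence.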
On the % scale 0 is the no-effect control and ±100 the full control effect.

SMILES	activity change, negative = cytotoxicity
CCOc1ccccc1-c1noc(CSc2nnc(-c3ccncc3)n2-c2ccc(F)cc2)n1	inactive: 6.08%
COc1ccc(-c2nnc(SCC(=O)N3CCCCC3)o2)cc1	inactive: 0.892%
O=C(COc1ccccc1)Nc1c(C(=O)N2CCN(c3ccc(F)cc3)CC2)oc2ccccc12	inactive: 3.12%
CC1CCN(C(=O)CN2c3ccc(Br)cc3-c3ccccc3S2(=O)=O)CC1	inactive: -9.17%
CCOc1ccc2c(c1)c(=O)c(S(=O)(=O)c1ccc(CC)cc1)cn2CC	inactive: -10.2%
CCc1ccc(OCC(=O)Nc2cc3oc4ccccc4c3cc2OC)c(Br)c1	inactive: -8.71%
COc1cccc(CNC(=O)CSc2cc(C)[nH]c(=O)n2)c1	inactive: 2.76%
Cc1ccc(C(=O)COC(=O)CCCC(=O)Nc2cc(C(F)(F)F)ccc2Cl)cc1C	inactive: 6.76%
Cc1c(Cl)cccc1NC(=O)CSc1nc(=O)n(Cc2ccncc2)c2c1CCC2	inactive: 4.05%
Cn1c(=O)n(Cc2ccccc2Cl)c(=O)c2c1nc1n2CCN1c1ccccc1	inactive: 8.65%
CCn1ccc2cc(S(=O)(=O)N3CCCN(C(=O)Nc4ccc(C)cc4Cl)CC3)ccc21	inactive: 16.9%
Cc1cc(Nc2ccccc2F)n2nc(Cc3ccc(Cl)cc3)nc2n1	inactive: -17.2%
COc1cc2c(cc1OC)n(CC(=O)Nc1ccc(C)cc1C)c(=O)n1nc(-c3ccccc3)nc21	inactive: -0.318%
COc1ccc(C(=O)NCc2ccc3c(c2)CCN3C(C)=O)cc1OC	inactive: 13.6%
Cc1ccc(-c2nc3cc(Cl)ccc3o2)cc1NC(=O)c1cc2ccccc2o1	inactive: 4.38%
Cc1c(C(=O)N(C)C)sc2c1c(=O)n(-c1ccccc1C(F)(F)F)c(=O)n2Cc1ccccc1C#N	inactive: -6.32%
COc1ccc(NC(=O)Cn2c(=O)n(Cc3nc(C)no3)c(=O)c3cc4c(cc32)OCO4)cc1	inactive: 16.1%
Cc1cc(C)cc(NS(=O)(=O)c2ccc(-c3cc(C)no3)s2)c1	inactive: -10.6%
COc1ccc(NC(=O)c2cc3c(=O)n(Cc4cccs4)ccc3nc2C)c(OC)c1	inactive: -8.03%
Cc1cc(C)c(NC(=O)C2CCN(C(=O)N3CC(C)Oc4ccc(Cl)cc43)CC2)c(C)c1 (stereo unspecified)	inactive: -1.93%
COc1ccccc1CNC(=O)CCCn1c(=O)c2ccccc2n(CC(=O)Nc2ccc(C)cc2Cl)c1=O	inactive: 20.2%
CC(C)Cc1nn2c(=O)cc(COC(=O)c3cccc(NC(=O)c4cccs4)c3)nc2s1	inactive: 17.8%
COc1ccc(-c2nsc(NC(=O)COc3ccccc3OC)n2)cc1	inactive: -0.971%
CCOc1ccc(NC(=O)CC2Nc3cccc4cccc(c34)NC2=O)cc1 (stereo unspecified)	inactive: -21.4%

SMILES	activity change, negative = cytotoxicity
COc1ccc(C(=O)N2CCCCC2CCN2CCOCC2)cc1 (stereo unspecified)	inactive: 6.01%
CC1=C(c2ccc(C)c(C)c2)S(=O)(=O)N=C1N1CCN(c2cccc(C)c2)C(C)C1 (stereo unspecified)	inactive: 3.21%
Cc1c(Cl)cccc1NC(=O)c1cc(-c2cccs2)on1	inactive: -16.2%
Cc1c(C(=O)N2CCC(C)CC2)c(S(=O)(=O)Nc2cccc(C#N)c2)c(C)n1C	inactive: 0.342%
COc1ccc(CN2CCCN(CC(=O)Nc3ccc(Br)cc3F)S2(=O)=O)cc1	inactive: 1.82%
Cc1ccc(-n2ncc(C(=O)NCc3ccc4c(c3)OCO4)c2C2CCN(C(=O)OC(C)(C)C)CC2)cc1C	inactive: -26.9%
CCOC(=O)c1ccc(NC(=O)C2=C(C)C(=O)OC23CCCCCC3)cc1	inactive: 1.84%
CC(C)Sc1ncc(Cl)c(C(=O)Nc2nc3ccc(S(C)(=O)=O)cc3s2)n1	inactive: 6.37%
Cc1cc(-c2ccc(S(=O)(=O)Nc3cccc(C(F)(F)F)c3)s2)on1	inactive: -10.6%
O=C(c1ccccc1Cl)N1CCCC(c2nc3c(nnn3Cc3ccc(F)cc3F)c(=O)[nH]2)C1 (stereo unspecified)	inactive: -27%
CC(=O)Nc1ccccc1OCc1cc(=O)n2c(C)csc2n1	inactive: -0.378%
CCOC(=O)c1cc(S(=O)(=O)NCc2ccc(F)cc2)[nH]n1	inactive: 5.44%
Cc1ccc(-c2nc(C)c(CCNC(=O)C(=O)Nc3ccc(C)c(Cl)c3)s2)cc1	inactive: 9.71%
COc1cccc(-c2nn(C)c3sc(C(=O)NCc4ccc(C)cc4)cc23)c1	inactive: -1.52%
CC(=O)N1c2ccc(S(=O)(=O)NCc3ccc(Cl)cc3)cc2CC1C (stereo unspecified)	inactive: -18.6%
CCC(CC)C(=O)Nc1cccc(-c2nc3ncccn3c2C)c1	inactive: -2.88%
CCc1ccc(CNC(=O)Cn2nc(C)c3c(C)n(-c4ccc(C)cc4)nc3c2=O)cc1	inactive: 5.99%
Cc1cc(=O)n2nc(N3CCC(C(=O)NCc4ccccc4F)CC3)sc2n1	inactive: 16.1%
Cc1ccc(NC(=O)CSc2ncc3c(n2)-c2ccccc2N(C)S3(=O)=O)c(Cl)c1	inactive: 15.4%
COc1ccc(CN(C)c2ccc(-c3nc(C)no3)cc2[N+](=O)[O-])cc1	inactive: -15.4%
CCCC12CN3CC(C)(CN(C1)C3c1cn(CC)c3ccccc13)C2=O (stereo unspecified)	inactive: 7.2%
CN(C)c1ccc(CNC(=O)Cn2c(=O)oc3cc(S(=O)(=O)NCc4ccccc4)ccc32)cc1	inactive: -20.5%
COc1ccc(CNC(=O)c2ccc(CS(=O)(=O)c3ccc(OC)cc3)o2)cc1	inactive: -0.409%
Cc1nn(CCC(=O)N2CCN(c3ccccc3F)CC2)c(C)c1S(=O)(=O)N1CCCC1	inactive: -0.535%

SMILES	activity change, negative = cytotoxicity
COCCCNC(=O)CSc1nc(-c2ccc(OC)cc2)[nH]c1-c1ccc(OC)cc1	inactive: -17.3%
COc1ccc2oc(=O)cc(CN3CCN(c4ccccc4OC)CC3)c2c1	inactive: 14.2%
CCOC(=O)c1c(C)[nH]c(CCC(=O)Nc2ccccc2OCC)c1C	inactive: -0.977%
O=C(NCc1ccccc1Cl)c1ccc2nc(Cc3ccccc3)oc2c1	inactive: -16.1%
CCC(=O)N1c2ccccc2CC1C(=O)NCCN1CCN(c2cccc(Cl)c2)CC1 (stereo unspecified)	inactive: -15.8%
CC(=O)N1CCCc2cc(S(=O)(=O)N3CCC(C(=O)NCc4ccccc4Cl)CC3)ccc21	inactive: 3.16%
COc1cc(NC(=O)Cn2nc(Cc3cccnc3)c3ccccc3c2=O)cc(OC)c1OC	inactive: 9.95%
CCCCN(CCCC)S(=O)(=O)c1ccc(C(=O)Nc2sc3c(c2C(N)=O)CCN(CC)C3)cc1	inactive: -24.1%
Cc1cccc(OCC(=O)Nc2c(C(=O)N3CCN(c4ccccc4)CC3)oc3ccccc23)c1	inactive: 8.1%
COc1ccc(N2CCN(c3oc(-c4ccccc4C)nc3S(=O)(=O)c3ccccc3)CC2)cc1	inactive: -2.08%
CC1=C(C(=O)Nc2cccc(Cl)c2)C2(CCCCCC2)OC1=O	inactive: 3.11%
COc1cc(NC(=O)Cn2nc(C(F)(F)F)c3c2CCCC3)cc(OC)c1OC	inactive: 6.62%
COc1ccccc1NC(=O)Cn1c(=O)n(CCc2ccccc2)c(=O)c2sc3ccccc3c21	inactive: 8.21%
CCOc1ccccc1CNC(=O)CCCn1nc(C)c2sc3ccccc3c2c1=O	inactive: 2.37%
Cc1cccc(CSc2nc3ccncc3n2Cc2ccc(C(=O)O)cc2)c1	inactive: 1.76%
Cc1ccc(OCc2ccc(-c3nc(C#N)c(N4CCN(c5cccc(Cl)c5)CC4)o3)o2)cc1	inactive: -2.13%
O=C(Nc1ccc(-c2cn3cccnc3n2)cc1)c1ccccc1F	inactive: 10.8%
Cc1ccccc1Nc1cc(C(=O)NC2CCC(C)CC2)c2ccccc2n1 (stereo unspecified)	inactive: 8.2%
CCOC(=O)c1ccc(NC(=O)c2c(NCc3cccc(OC)c3)sc3c2CCC3)cc1	inactive: -26.5%
Cc1cccc(C)c1NC(=O)N1CCC(C(N)=O)(N2CCCCC2)CC1	inactive: 4.14%
O=C(Nc1ccc(F)cc1F)c1cc2ccc3cccnc3c2[nH]1	inactive: 11.5%
COc1ccc(-c2nc(Cn3c(SCc4cccc(F)c4)nc4cccnc43)c(C)o2)cc1	inactive: -18.5%
COc1cccc(C(=O)NCC(c2ccc(N(C)C)cc2)N2CCc3ccccc32)c1OC (stereo unspecified)	inactive: 5.62%
COc1ccc2oc(-c3ccc(C)c(NC(=O)c4sc5ccccc5c4Cl)c3)nc2c1	inactive: -4.03%

SMILES	activity change, negative = cytotoxicity
CC(C)c1ccc(C(=O)Nc2ccc(-c3nc4ccccc4s3)c(Cl)c2)cc1	inactive: 7.14%
COc1cccc(-n2c(-c3ccco3)nc3c(cnn3-c3ccccc3C)c2=O)c1	inactive: -19.2%
Cn1cc(C(=O)N2CCN(c3cccc(Cl)c3)CC2)c(=O)c2cc(S(=O)(=O)N3CCCC3)ccc21	inactive: -20.1%
COc1ccc(C)cc1NC(=O)CN1CCCN(S(=O)(=O)c2ccc(Br)cc2)CC1	inactive: -29%
CCOc1ccccc1NC(=O)c1c(NC(=O)Cc2ccccc2)sc2c1CCCC2	inactive: 17.5%
COC(=O)CSCc1nc(-c2ccc(C(=O)OC)cc2)oc1C	inactive: 6.27%
O=C(CCNS(=O)(=O)c1cccc2nonc12)Nc1ccc(F)cc1	inactive: 24.8%
COC(=O)c1cccc(Nc2c(-c3ccc(O)cc3)nc3nc[nH]n23)c1	inactive: -4.04%
COC(=O)c1cc(OC)c(OC)c(OC)c1NC(=O)c1cc(=O)n(C)c(=O)n1C	inactive: -24.8%
CCOc1ccc(NC(=O)CSc2ccc3ccccc3n2)cc1	inactive: -2.26%
COCCCNC(=O)CN1C(=O)COc2ccc(S(=O)(=O)N3CCOCC3)cc21	inactive: -0.548%
CC(C)Oc1ccc(CNC(=O)c2ccc3c(c2)N(Cc2ccc(F)cc2)CCS3)cc1	inactive: 1.25%
Clc1ccccc1CNc1nc2ccccc2c2nc(-c3ccccc3)nn12	inactive: 21.7%
O=C(Cn1ncc2c3ccccc3n(Cc3ccc(F)cc3)c2c1=O)NC1CCCCCC1	inactive: 1.11%
CCOC(=O)c1cc(-c2ccccc2)n(-c2cccc(C(=O)NC(C)CC)c2)c1C (stereo unspecified)	inactive: -8.62%
COc1ccc(Nc2nc(-c3ccccc3)c3cc(Br)ccc3n2)cc1	inactive: 14.4%
Cc1ccc(C)c(NC(=O)N2CCN(c3nnc(C)c4c(C)n(-c5ccccc5)nc34)CC2)c1	inactive: -3.26%
COc1cc2c(cc1OC)C(COc1ccccc1OC)N(C(=O)c1ccc(S(=O)(=O)N3CCCC3)cc1)CC2 (stereo unspecified)	inactive: 0.717%
Cc1c(C(=O)N(C)c2ccccc2)sc2nc(-c3ccc(F)cc3)cn12	inactive: -9.97%
CCc1cc2c(cc3c(=O)n(CC(=O)NC4CCC(C)CC4)nc(CC)n32)s1 (stereo unspecified)	inactive: 13%
O=C(Nc1cccc2cccnc12)c1cccc2c(Br)cccc12	inactive: 1.49%
O=C1c2oc3ccccc3c(=O)c2C(c2ccccc2F)N1Cc1ccc2c(c1)OCO2 (stereo unspecified)	inactive: -4.58%
Cc1ccccc1OCC(=O)NCC(c1ccc(Cl)cc1)N1CCOCC1 (stereo unspecified)	inactive: 3.65%
CN(C(=O)CSc1cn(CC(=O)N2CCCC2)c2ccccc12)c1ccccc1	inactive: -1.07%

Source: PubChem BioAssay AID1508642 (National Center for Advancing Translational Sciences (NCATS), 2021)
